# Patent US20260176364A1 (INSTITUT PASTEUR, published 2026)
# B1: α7C4-Fc (Fc fusion)
# chain: MGSSHHHHHHAAAAQVQLVESGGGLVQAGGSLKLSCAASGFTFAHYAMVWFRQAPGKEREFVAGISWSGASTYYASSVKGRFTISRDNAKNTVYLQMNSLKPEDTAVYYVAAARFGVGVDDDYSYWGQGTQVTVSSAAARS[human IgG1 Fc not shown]
# notes: VHH fused at its C-terminus to a human IgG1 Fc, a dimer with two VHH domains, made in EXPI293F cells; also called C4 fused to the heavy chain fragment of a human IgG; VHH-Fc (C4)
# B2: α7E3-Fc (Fc fusion)
# chain: MGSSHHHHHHAAAAEVQLQASGGGLVQAGDSLRLSCAASGGTFSHYAVGWFRQAPGKEREFVAAISWSGRSTSFANSVKGRFTISRDSAKNTAYLQMNNLKPEDTAVYCCAPARFGTGSAARDEYDDCGQGTQVTVSSAAARS[human IgG1 Fc not shown]
# notes: VHH fused at its C-terminus to a human IgG1 Fc, a dimer with two VHH domains, made in EXPI293F cells; also called E3 fused to the heavy chain fragment of a human IgG; VHH-Fc (E3)
# Legend:
# human α4GFPβ2-nAChR = target: T1, human α4GFPβ2-nAChR (human); test: immunofluorescence, permeabilized HEK293 cells, anti-human IgG-Alexa647
# T1 construct: whole, on cells; Heteromeric receptor on transfected, permeabilized HEK293 cells; also called α4β2-nAChR
# human α3β4StrepII-nAChR = target: T2, human α3β4StrepII-nAChR (human); test: as above
# T2 construct: whole, on cells; Heteromeric receptor on transfected, permeabilized HEK293 cells; also called α3β4-nAChR; hα3 hβ4StrepII; not shown: C-terminal StrepTagII
binder,measurement,setting,value
B1,binding result,human α4GFPβ2-nAChR,no binding (tested: 5 µg/ml)
same,binding result,human α3β4StrepII-nAChR,no binding (tested: 5 µg/ml)
B2,binding result,human α4GFPβ2-nAChR,no binding (tested: 5 µg/ml)
same,binding result,human α3β4StrepII-nAChR,no binding (tested: 5 µg/ml)
